Source: PubChem BioAssay AID1768 (National Center for Advancing Translational Sciences (NCATS), 2009)
Screen size: about 270,000 compounds; about 620 (0.23%) were called active. The shares of active, inactive and inconclusive entries below differ from those in the screen. Calls follow the shape of the dose curve; as a rule, active = well fitted inhibition curve with a large enough effect in the polarisation, with a control signal flat (not every such curve was filed as active); inconclusive = small, poorly fitted or top-dose-only effect, or effect the other way, or a change in a side signal; inactive = no such curve, though single readings can be large or run the other way; the % refers to the polarisation. Potencies of inconclusive entries are doubtful fits and often do not repeat. “Side channel” marks fits to a control or component signal instead of the main read-out.

What follows are compounds tested against Menin (Homo sapiens) (UniProt O00255) (assay: qHTS Assay for Inhibitors Targeting the Menin-MLL Interaction in MLL Related Leukemias: Competition With Texas Red Labeled MLL-derived Mutant Peptide). Settings: fluorescence polarization; series mostly up to 61.6 µM.
Sequence of UniProt O00255 (O00255 whole entry, looked up): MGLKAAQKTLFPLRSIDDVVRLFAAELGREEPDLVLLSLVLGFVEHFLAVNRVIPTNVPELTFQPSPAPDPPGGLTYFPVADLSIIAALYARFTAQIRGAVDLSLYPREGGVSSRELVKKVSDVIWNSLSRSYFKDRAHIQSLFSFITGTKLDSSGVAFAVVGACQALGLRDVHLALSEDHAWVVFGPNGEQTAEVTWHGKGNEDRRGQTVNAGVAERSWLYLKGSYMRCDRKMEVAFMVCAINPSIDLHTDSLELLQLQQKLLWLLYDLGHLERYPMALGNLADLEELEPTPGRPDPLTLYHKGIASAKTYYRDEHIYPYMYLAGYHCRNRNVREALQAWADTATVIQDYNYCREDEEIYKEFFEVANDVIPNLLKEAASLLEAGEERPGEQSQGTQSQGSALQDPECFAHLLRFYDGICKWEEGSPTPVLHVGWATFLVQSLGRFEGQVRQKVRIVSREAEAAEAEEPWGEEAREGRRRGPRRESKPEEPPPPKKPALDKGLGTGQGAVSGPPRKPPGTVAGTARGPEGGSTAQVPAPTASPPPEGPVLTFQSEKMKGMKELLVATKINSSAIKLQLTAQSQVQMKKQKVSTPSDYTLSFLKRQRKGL
Potency is read from the fitted curve at half-maximal effect; tags tell the direction and shape of the fitted curve or compound fluorescence and quenching.

| SMILES | Potency |
| --- | --- |
| CC(C)Cn1[nH]c2c3c(ccc2c1=O)C(=O)c1ccccc1C3=O | inconclusive: 15.8 µM [quencher, side channel, partial curve] |
| CCCCCCn1c(SCCCC)nc2c1c(=O)[nH]c(=O)n2C | inconclusive: 17.8 µM [inhibitor, single point] |
| CNCc1c(OCc2ccccc2F)ccc2ccccc12 | inconclusive: 15.8 µM [fluorescent, side channel, partial curve] |
| COc1ccc(NC(=O)CSc2ncnc3c2cnn3CCc2ccccc2)cc1 | inconclusive: 39.8 µM [inhibitor, single point] |
| CN(C)c1ccc(/C=C2/C(=O)Nc3ccccc32)cc1 | inconclusive: 39.8 µM [quencher, side channel, partial curve] |
| Brc1ccc(CSc2nnc(Cc3c[nH]c4ccccc34)o2)cc1 | inconclusive: 31.6 µM [quencher, side channel, partial curve] |
| COc1ccc(C(=O)NCC(=O)OCC(=O)Nc2sccc2C#N)cc1OC | inactive |
| COc1ccc(-c2nn(-c3ccccc3)cc2/C=N/O)cc1 | inconclusive: 35.5 µM [quencher, side channel, single point] |
| COc1cc2ncnc(NCc3ccc4c(c3)OCO4)c2cc1OC | inconclusive: 11.2 µM [inhibitor, partial curve] |
| C=CCN(CC=C)CCOc1cccc(Oc2ccccc2)c1 | inconclusive: 28.2 µM [fluorescent, side channel, partial curve] |
| CC1(C)SC(=S)N(NC(=O)Nc2cccc3ccccc23)C1N(O)C(=O)Nc1ccccc1 (centres undefined) | inconclusive: 31.6 µM [quencher, side channel, single point] |
| CC(NC(=O)CCSCc1ccccc1F)c1ccccc1 (centres undefined) | inconclusive: 35.5 µM [inhibitor, partial curve] |
| CC(NC(=O)/C=C/c1ccccc1[N+](=O)[O-])C1CC2CCC1C2 (centres undefined) | inconclusive: 7.08 µM [quencher, side channel, single point] |
| CCOc1ccc(Br)cc1C1=NN(C(C)=O)C(c2ccc([N+](=O)[O-])s2)O1 (centres undefined) | inconclusive: 25.1 µM [quencher, side channel, partial curve] |
| CCn1c2ccccc2c2cc(NC(=O)c3ccc(C)c([N+](=O)[O-])c3)ccc21 | inconclusive: 8.91 µM [quencher, side channel, full curve, poor fit] |
| c1ccc2c3c([nH]c2c1)-c1[nH]ncc1CC3 | inconclusive: 14.1 µM [quencher, side channel, partial curve] |
| CC(C)Cc1csc(NC(=O)c2ccc(F)cc2)c1C(=O)O | inconclusive: 20 µM [quencher, side channel, partial curve] |
| COc1cc2[nH]c3c(OC)ncnc3c2cc1OC | inconclusive: 6.31 µM [inhibitor, single point] |
| CCc1nc2ccccc2c(C(=O)Nc2ccc(C)cc2)c1C | inconclusive: 28.2 µM [fluorescent, side channel, single point] |
| O=C(N/N=C/c1ccc2c(c1)OCO2)c1sc2cccc(Cl)c2c1Cl | inconclusive: 39.8 µM [inhibitor, single point] |

| SMILES | Potency |
| --- | --- |
| COc1ccc(/C=C2/C(=O)N(c3cccc(F)c3)N=C2C)c(OC)c1 | inconclusive: 25.1 µM [quencher, side channel, partial curve] |
| COC(=O)c1cc(NC(=O)c2cc(C)oc2C)cc(C(=O)OC)c1 | inactive |
| CC(=O)N(C)/C=C1\Sc2ccccc2C1=O | inconclusive: 39.8 µM [fluorescent, side channel, single point] |
| COC(=O)C1=COC(O[C@H]2OC(CO)[C@H](O)C(O)C2O)[C@H]2C1C(=O)C[C@@H]2C (some centres undefined) | inconclusive: 0.631 µM [quencher, side channel, full curve, poor fit] |
| COc1ccc(Nc2nc(N)c([N+](=O)[O-])c(N3CCCC3)n2)cc1 | inconclusive: 39.8 µM [quencher, side channel, partial curve, poor fit] |
| COC(=O)c1cc2c(ccn2-c2ccc(F)cc2)n1CC(=O)C(C)(C)C | inactive |
| CCOc1ccccc1-c1c2cc(O)c(=O)cc-2oc2cc(O)c(O)cc12 | inconclusive: 20 µM [fluorescent, side channel, partial curve] |
| Nc1ncc(Br)cc1S(=O)(=O)NCCC(=O)Nc1cccc(Cl)c1 | inconclusive: 22.4 µM [quencher, side channel, single point] |
| N=C(N)S/C=C\C(=O)O | inactive |
| COC(=O)c1ccccc1S(=O)(=O)Nc1ccc(OC)nc1 | inconclusive: 11.2 µM [inhibitor, partial curve] |
| COc1ccc(CCC(=O)Nc2ccc(C(=O)c3ccncc3)cc2)cc1 | inconclusive: 28.2 µM [quencher, side channel, single point] |
| Cc1cccc(N=Nc2ccc(O)c3ncccc23)c1 | inconclusive: 11.2 µM [quencher, side channel, partial curve] |
| C=CCNc1oc(-c2ccc(OC)cc2)nc1C#N | inactive |
| C=C[C@@]1(C)CC(=O)[C@]2(O)[C@@]3(C)[C@H](O)CCC(C)(C)[C@@H]3[C@H](O)[C@H](OC(C)=O)[C@@]2(C)O1 | inactive |
| CSc1ccc(C2CC(=O)Nc3nc(SC)[nH]c(=O)c32)cc1 (centres undefined) | inconclusive: 20 µM [quencher, side channel, single point] |
| CC(CC(=O)Nc1ncc([N+](=O)[O-])s1)c1ccccc1 (centres undefined) | inconclusive: 28.2 µM [quencher, side channel, partial curve] |
| CCOC(=O)c1ccc(NC(=O)CC2C(=O)OCCN2CC)cc1 (centres undefined) | inactive |
| COc1ccc(CNc2nc3ccccc3n2C(C)C)c(O)c1 | inconclusive: 22.4 µM [quencher, side channel, partial curve] |
| Cc1ccc2nc(/C(C#N)=C\c3ccc(N4CCCCC4)c([N+](=O)[O-])c3)[nH]c2c1 | inconclusive: 31.6 µM [quencher, side channel, single point] |
| CC1CC(N(C(=O)C2CC2)c2ccccc2)c2ccccc2N1C(=O)C1CC1 (centres undefined) | inconclusive: 3.98 µM [fluorescent, side channel, full curve] |

| SMILES | Potency |
| --- | --- |
| CN(CC(=O)N1CCc2ccccc2C1)c1ccccc1 | inconclusive: 25.1 µM [inhibitor, partial curve] |
| Cc1ccc(SCc2ccc(C(=O)NCc3ccncc3)cc2)cc1 | inconclusive: 4.47 µM [inhibitor, single point] |
| CNC(=S)N/N=C/c1ccc(-c2ccc(Cl)c([N+](=O)[O-])c2)o1 | inconclusive: 14.1 µM [quencher, side channel, partial curve] |
| Cc1cc(O)c(C(C)C)cc1N=C1CSC(=O)N1 | inconclusive: 28.2 µM [quencher, side channel, partial curve] |
| COC(=O)CSc1nc2c(c(-c3ccco3)c1C#N)CCCC2 | inconclusive: 31.6 µM [quencher, side channel, single point] |
| Oc1ccccc1N1CCN(C(=S)NCc2ccccc2)CC1 | inconclusive: 31.6 µM [quencher, side channel, single point] |
| Cn1c(=O)c(C(=O)NCc2ccccc2)c(O)c2ccccc21 | inconclusive: 39.8 µM [inhibitor, single point] |
| CCOc1ccccc1NC(=O)NC(=O)N(C)S(=O)(=O)c1ccc(C)cc1 | inconclusive: 28.2 µM [quencher, side channel, single point] |
| CN(Cc1nc(Cc2ccccc2F)no1)CC1(N2CCOCC2)CCCCC1 | inconclusive: 8.91 µM [fluorescent, side channel, partial curve] |
| O=C(Cn1c(COc2ccccc2)nc2ccccc21)Nc1cc(Cl)c(Cl)cc1Cl | inconclusive: 2 µM [inhibitor, partial curve] |
| Nc1ccc2nn(-c3cccc4ccccc34)nc2c1 | inconclusive: 10 µM [quencher, side channel, partial curve] |
| CCOC(=O)c1cc(CC)sc1NC(=O)c1ccc2c(c1)OCCO2 | inactive |
| Cc1cc(=O)oc2cc(OCc3ccc(C(=O)OCC(=O)Nc4ccc(N(C)C)cc4)cc3)ccc12 | inconclusive: 28.2 µM [quencher, side channel, partial curve] |
| COc1ccc(-c2nc(-c3ccc4c(c3)OCO4)[nH]c2-c2ccc(OC)cc2)cc1 | inconclusive: 3.98 µM [quencher, side channel, partial curve] |
| COc1ccccc1C1CCN(Cc2ccc3ccccc3c2)CC1 | inconclusive: 17.8 µM [fluorescent, side channel, partial curve] |
| CCc1ccc2[nH]c(C(=O)Nc3ccc(C)c(F)c3)cc2c1 | inactive |
| COc1cc(/C=C/c2cc(OC(C)=O)c3ccccc3n2)c(OC(C)=O)c([N+](=O)[O-])c1 | inconclusive: 28.2 µM [quencher, side channel, single point] |
| Cc1ccc(N2C(=O)c3ccccc3C2C(=O)c2ccc(O)cc2O)cc1 (centres undefined) | inconclusive: 39.8 µM [quencher, side channel, single point] |
| CCCC(C(=O)n1nc(C)cc1C)C(NS(=O)(=O)c1ccc(C)cc1)c1ccccc1 (centres undefined) | inconclusive: 3.55 µM [fluorescent, side channel, full curve, poor fit] |
